Measurements as given in PubChem BioAssay AID1671194 (National Center for Advancing Translational Sciences (NCATS), 2021).
Where “and” joins values, the source holds several entries; their conditions need not be identical. Equal entries are not always repeated. Hit rate of the full screen: of about 140,000 compounds, about 240 (0.17%) were called active. Inconclusive means that the source gave no clear call. Such entries were picked first, then a sample of the others. The call rests on the fitted dose curve; in most records, active means well fitted inhibition curve with a large enough effect; inconclusive means small, poorly fitted or top-dose-only effect; inactive means no such curve, though single readings can be large or run the other way. Potencies beside an inconclusive call are fits to weak or partial responses and may not hold up. Some structures have more than one record in an assay (separate samples or runs), and their calls can disagree.

Assay: Primary qHTS assay for inhibitors of alpha-synuclein gene (SNCA) expression; further: nearly all actives have a fitted effect of over 45% in size
Conditions: HEK-293 SNCA-luciferase knock-in, luminescence, 24 h; series mostly up to 57.2 µM
Potency means the concentration at half of the fitted maximal effect; tags describe the fitted curve by direction and shape.

For Cc1ccc(-c2noc(CCCC(=O)N3CCC(c4nc(C(=O)N5CCCC5)c(C)o4)CC3)n2)cc1, which Potency is on record?
Its Potency is inconclusive: 10 µM [inhibitor, partial curve, poor fit].

For Cc1cccc(C)c1OCCCn1c(CCNC(=O)C2CCCCC2)nc2ccccc21, which Potency is on record?
The Potency was inconclusive: 31.6 µM [inhibitor, single point].

For COc1cccc(CN2CCC[C@@H](O)[C@H](NC(=O)c3ccc(OCc4ccccc4)cc3)C2)c1, which Potency is on record?
Its Potency is inconclusive: 17.8 µM [inhibitor, single point].

Which Potency does the source give for COc1cccc(Nc2ncc3c(n2)C(C)(C(=O)Nc2nc(C)cs2)CC3)c1 (configuration not stated) here?
The Potency was “inactive”.

For O=C1CCN(C(=O)c2ccsc2)CCCC(C(=O)N2CCN(c3ccccn3)CC2)CCN1 (configuration not stated), which Potency is on record?
The Potency was “inactive”.

Which Potency does the source give for COc1ccc2cc(C3CN(Cc4cc5n(n4)CCNC5)CCO3)ccc2c1 (configuration not stated) here?
The Potency was “inactive”.

With O=C(Nc1cc(-c2cccnc2)nn1-c1ccccc1)c1cccc(Br)c1 as the compound, how does the Potency read?
Its Potency is “inactive”.

For Cc1cccc(CC(=O)N2CCC(c3n[nH]c(=O)n3-c3ccccc3)CC2)c1, which Potency is on record?
Its Potency is inconclusive: 39.8 µM [inhibitor, single point].

For Cc1cc(C2CCC2)nc(N2C[C@@H](C)[C@@](C)(O)C2)n1, which Potency is on record?
The Potency was inconclusive: 2.51 µM [inhibitor, partial curve, poor fit].

Which Potency does the source give for COc1ccc(N(CC(=O)NCCc2ccccc2)S(=O)(=O)c2ccccc2)c(OC)c1 here?
The Potency was inconclusive: 39.8 µM [inhibitor, single point].

For OCc1nnc(C2CC(Nc3ncnc4ccccc34)C2)n1C1CC1 (configuration not stated), which Potency is on record?
The Potency was inconclusive: 6.31 µM [inhibitor, single point].

Which Potency does the source give for O=C(NCc1ccc(F)cc1Cl)C1CCN(C(=O)c2ncn3c2COC(c2ccccc2)C3)CC1 (configuration not stated) here?
Its Potency is “inactive”.

For COc1ccc(CN2C=C(C(=O)OCc3noc(-c4ccc(OC)cc4)n3)C(C)=NS2(=O)=O)cc1, which Potency is on record?
Its Potency is inconclusive: 39.8 µM [inhibitor, single point].

With Cc1c(F)cccc1NC(=O)N1CCCC(c2noc(COc3ccccc3)n2)C1 (configuration not stated) as the compound, how does the Potency read?
Its Potency is “inactive”.

For O=S(=O)(c1ccccc1)c1nc(-c2ccc(Cl)cc2Cl)oc1N1CCCCCC1, which Potency is on record?
The Potency was inconclusive: 7.08 µM [inhibitor, single point].

For CN1CCCCCC(O)c2cc(C(=O)N3CCN(c4ccc(F)cc4)CC3)ccc21 (configuration not stated), which Potency is on record?
The Potency was “inactive”.

For O=C1OC[C@@H]2CCN(C3COC3)Cc3ccc(F)cc3N12, which Potency is on record?
Its Potency is inconclusive: 8.91 µM [inhibitor, partial curve, poor fit].

With Cc1noc2c(NC3CCC(O)CC3)cc(-c3ccc(Cl)cc3)nc12 (configuration not stated) as the compound, how does the Potency read?
Its Potency is inconclusive: 28.2 µM [inhibitor, single point].

With COc1cccc(C(=O)NC2CCN(c3nccc(Nc4ccccc4Cl)n3)CC2)c1 as the compound, how does the Potency read?
Its Potency is inconclusive: 39.8 µM [inhibitor, single point].

For O=C1CCCN1CC(=O)N1CCC[C@H](n2c(=O)n(CC3CC3)c3cccnc32)C1, which Potency is on record?
The Potency was inconclusive: 5.01 µM [inhibitor, single point].

Which Potency does the source give for CNC(=O)CCn1ncc2cc(OCc3ccccc3-c3ccc(OC)cc3C)ccc21 here?
Its Potency is “inactive”.

Which Potency does the source give for Cc1noc(C)c1-c1cnc(Nc2ccncc2)c2c1CCO2 here?
The Potency was inconclusive: 7.08 µM [inhibitor, single point].

Which Potency does the source give for COc1cccc(-c2cc(C(=O)Nc3cc(OC)c(OC)c(OC)c3)on2)c1 here?
Its Potency is inconclusive: 1.12 µM [inhibitor, full curve, poor fit].

With O=C(CCCn1c(=O)c2cccn2c2cccnc21)NCc1ccc(F)cc1 as the compound, how does the Potency read?
Its Potency is inconclusive: 7.08 µM [inhibitor, single point].

Which Potency does the source give for Clc1ccc(-c2cnc([C@@H]3COCCN3CC3CC3)[nH]2)s1 here?
Its Potency is “inactive”.

With CCN(CC)c1cc2c(cc1F)c(=O)c(S(=O)(=O)c1cc(C)ccc1C)cn2Cc1ccccc1 as the compound, how does the Potency read?
Its Potency is inconclusive: 6.31 µM [inhibitor, single point].

For Cc1cccc(CC2C(=O)Nc3ccccc32)c1 (configuration not stated), which Potency is on record?
Its Potency is inconclusive: 7.08 µM [inhibitor, single point].

For OCC1CNCCC12CCN(Cc1ccc3ccccc3c1)CC2 (configuration not stated), which Potency is on record?
The Potency was inconclusive: 39.8 µM [inhibitor, single point].

Which Potency does the source give for O=C(c1nccc2ccccc12)N1CCc2c(nc(-c3ccccc3)[nH]c2=O)C1 here?
Its Potency is inconclusive: 39.8 µM [inhibitor, single point].

For Cc1ccc2c(c1)N1C(=O)OC[C@@H]1CCN(C(=O)c1ccccn1)C2, which Potency is on record?
The Potency was inconclusive: 7.94 µM [inhibitor, single point].

For Cn1cc(CN2CCOC[C@H](Oc3ccc(S(C)(=O)=O)cc3)C2)c2ccccc21, which Potency is on record?
Its Potency is inconclusive: 12.6 µM [inhibitor, partial curve, poor fit].

For Cn1ccc2c(C(=O)NCCc3cnc[nH]3)nc(-c3cccc(C(F)(F)F)c3)cc21, which Potency is on record?
The Potency was inconclusive: 25.1 µM [inhibitor, partial curve].

With CC(C)CCN1CCOc2cc(C(=O)N(C)c3cccnc3)ccc2C1 as the compound, how does the Potency read?
Its Potency is inconclusive: 56.2 µM [inhibitor, single point].

With O=C(NC1CCN(c2cc(-c3cccs3)[nH]n2)C1)c1cccc2[nH]ccc12 (configuration not stated) as the compound, how does the Potency read?
Its Potency is inconclusive: 11.2 µM [inhibitor, partial curve, poor fit].

For COc1cc(CN2CCC(C)(NC(C)=O)CC2)cc(Nc2ccccc2)c1, which Potency is on record?
The Potency was inconclusive: 14.1 µM [inhibitor, partial curve, poor fit].

Which Potency does the source give for CN1CC(=O)N(c2ccccc2F)Cc2c(NCCc3ccc(Cl)cc3)ncnc21 here?
The Potency was inconclusive: 39.8 µM [inhibitor, single point].

For O=C(NC1CCCC1)C1CCCN(Cc2cccc(-c3cccs3)c2)C1 (configuration not stated), which Potency is on record?
Its Potency is inconclusive: 10 µM [inhibitor, partial curve, poor fit].

With COc1cncc(N2C[C@H]3[C@H](C2)[S+](=O)([O-])C(C)(C)C(=O)N3Cc2ccccc2)c1 as the compound, how does the Potency read?
The Potency was inconclusive: 56.2 µM [inhibitor, single point].

Which Potency does the source give for c1ccc(CO[C@@H]2CO[C@H]3[C@@H]2OC[C@@H]3n2nnnc2SCc2ccco2)cc1 here?
Its Potency is inconclusive: 56.2 µM [inhibitor, single point].

Which Potency does the source give for COc1ccc(C(=O)CN2C(=O)N(c3ccc(C(C)=O)cc3)S(=O)(=O)c3ccccc32)cc1 here?
The Potency was inconclusive: 10 µM [inhibitor, partial curve, poor fit].

With CC(=O)N1CCCC(c2[nH]ccc2C(=O)N2CCN(c3ccccc3)CC2)C1 (configuration not stated) as the compound, how does the Potency read?
The Potency was inconclusive: 39.8 µM [inhibitor, single point].

Which Potency does the source give for CC(C)NS(=O)(=O)c1ccc2nc(NC(=O)c3cncc(Br)c3)sc2c1 here?
The Potency was inconclusive: 39.8 µM [inhibitor, single point].

With Fc1ccc(CN2CCC3(CC(c4cccc(C(F)(F)F)c4)=NO3)C2)cc1 (configuration not stated) as the compound, how does the Potency read?
The Potency was “inactive”.

For Cc1nn2c(c1-c1ccccc1N1CCCC1)N(C(=O)c1ccc(F)cc1)CCC2, which Potency is on record?
Its Potency is inconclusive: 31.6 µM [inhibitor, single point].

Which Potency does the source give for COCCN1C(=O)[C@@H]2C[C@@H](CN2Cc2ccc3ccccc3n2)Oc2ccccc21 here?
The Potency was “inactive”.

With O=C(Cc1c[nH]c2ncc(-c3ccc(F)c(Cl)c3)cc12)NCc1cccnc1 as the compound, how does the Potency read?
Its Potency is “inactive”.

With COc1cccc(CNC(=O)CCc2c(C)c3cc4c(C)c(C)oc4cc3oc2=O)c1 as the compound, how does the Potency read?
The Potency was inconclusive: 7.08 µM [inhibitor, single point].

Which Potency does the source give for CCOC(=O)c1ccccc1NS(=O)(=O)c1c(-c2ccc(C)cc2)csc1C(=O)OC here?
The Potency was inconclusive: 14.1 µM [inhibitor, partial curve, poor fit].

Which Potency does the source give for COc1ccc(C(=O)N2CCC(N3C(=O)C4(CCCCC4)C3c3ccncc3)CC2)cn1 (configuration not stated) here?
Its Potency is inconclusive: 39.8 µM [inhibitor, single point].

With Cc1cccc(Cl)c1NC(=O)Cn1ccn2nc(-c3ccc(F)cc3)c(CO)c2c1=O as the compound, how does the Potency read?
The Potency was inconclusive: 11.2 µM [inhibitor, partial curve, poor fit].

For COc1ccccc1Nc1ccnc(N2CCN(C(=O)c3ccc(Cl)nc3)CC2)n1, which Potency is on record?
Its Potency is “inactive”.

Which Potency does the source give for CCNC(=O)N[C@H]1C[C@@H](Cc2cc(CN3CCCCC3)on2)C1(C)C here?
The Potency was inconclusive: 12.6 µM [inhibitor, partial curve, poor fit].

Which Potency does the source give for CN(C)C(C(=O)N1CCN(Cc2nccn2C)CC1)c1cccc(F)c1 (configuration not stated) here?
The Potency was inconclusive: 12.6 µM [inhibitor, partial curve, poor fit].

With COc1ccc(CN(C)C2CCCN(CCc3ccccc3)C2)cc1F (configuration not stated) as the compound, how does the Potency read?
The Potency was inconclusive: 7.08 µM [inhibitor, full curve, poor fit].

Which Potency does the source give for CCCOc1ccc(Cl)cc1CNC(=O)C1CCN(CC(N)=O)CC1 here?
The Potency was “inactive”.

Which Potency does the source give for Fc1cccc(CN2CCNc3cc(Nc4cccnc4)ncc3C2)c1 here?
The Potency was inconclusive: 7.94 µM [inhibitor, full curve, poor fit].

Which Potency does the source give for O=C(NCc1cccnc1)c1cc(-c2ccccc2F)cc2c1OCCN2Cc1cccnc1 here?
Its Potency is “inactive”.

With COc1ccc(N2CCN(CCCNC(=O)c3cnn(-c4ccc(F)cc4)c3-n3cccc3)CC2)cc1 as the compound, how does the Potency read?
The Potency was inconclusive: 39.8 µM [inhibitor, single point].

Which Potency does the source give for CC(Sc1oc(-c2ccco2)nc1S(=O)(=O)c1ccc(Br)cc1)c1ccccc1 (configuration not stated) here?
The Potency was inconclusive: 39.8 µM [inhibitor, single point].

For O=C(N1CCOCC1)N1CCN(c2cc(Cl)ncn2)C(=O)C1, which Potency is on record?
Its Potency is inconclusive: 31.6 µM [inhibitor, single point].

For CC1=C(C(=O)NCC2Cn3cccc3C(=O)N2Cc2ccccc2)C2(CCCCC2)OC1=O (configuration not stated), which Potency is on record?
Its Potency is “inactive”.

For CC(C)C[C@H](NC(=O)[C@H](CCc1ccccc1)NC(=O)CN1CCOCC1)C(=O)N[C@@H](Cc1ccccc1)C(=O)N[C@@H](CC(C)C)C(=O)[C@@]1(C)CO1, which Potency is on record?
Its Potency is “inactive and active: 121 nM”.
